Some of the results follow.

The chains are these.
T1: UNK ZnF1-6 (called full-length) (human, UniProt Q9C0B0 30-357)
T1 sequence: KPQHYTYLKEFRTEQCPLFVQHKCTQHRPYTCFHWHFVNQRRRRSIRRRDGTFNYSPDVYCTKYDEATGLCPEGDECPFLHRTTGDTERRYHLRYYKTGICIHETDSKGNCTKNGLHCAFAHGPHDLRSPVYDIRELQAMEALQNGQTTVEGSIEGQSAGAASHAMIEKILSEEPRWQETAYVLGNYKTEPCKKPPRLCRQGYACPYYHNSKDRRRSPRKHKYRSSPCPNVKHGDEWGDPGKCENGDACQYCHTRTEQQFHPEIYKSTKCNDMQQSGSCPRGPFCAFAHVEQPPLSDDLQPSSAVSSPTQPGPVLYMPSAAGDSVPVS

B1: chr8:80637648:80637749:-|3pUTR|ENSG00000164684|unk|total|mutant (ssRNA)
RNA: GGGAGUUCUACAGUCCGACGAUCUGCGCUCCGCUGCAAAGUGCCUGUCAGCAGCUCCAGGCACCAACAAGGUGCCCUUUUAUCCGACAAUUCCUGCCCGAACAUAACCAUAUUGCAGAUGAAAAUUUUCAACCGAGAAUGACACAACAGAGGAUUGAGCAUCA
B2: chr2:209733988:209734100:+|3pUTR|ENSG00000078018|unk|total|mutant (ssRNA)
RNA: GGGAGUUCUACAGUCCGACGAUCUCUGAUAAUUCCCGAGCCUGUUACCACCGAAAGGCAUUUCUUCAAUGGCUGGUUGCCGUCCGUUCAUGUUUUUCAAUCAAAUUUGCAAAUGUAUUUGUUGCUGUACCGUGAUUGUUUUGCCAACAGAGGAUUGAGCAUCA
B3: ENSG00000198589:be:win_8251|CDS|ENSG00000198589|bound_else_gene|NA|bound_elsewhere_windowed (ssRNA)
RNA: GGGAGUUCUACAGUCCGACGAUCCUCUUCUGUACAUUCAGUGUGAAUGGAAAACUCCAGGCCACGAUGGAAACAGAUGAUAACAUAAGAGCCAUCCAGCUGAGCCGAGAUGGGCAGUACCUGCUCACAGGAGGAGACAGAGGACAACAGAGGAUUGAGCAUCA
B4: ENSG00000107863:be:win_1951|CDS|ENSG00000107863|bound_else_gene|NA|bound_elsewhere_windowed (ssRNA)
RNA: GGGAGUUCUACAGUCCGACGAUCCCAGUAAAUCACUUGCAUCAGAACAGUCUGUUGAAUCAGCAGACAUGGGUAAGGACUGACAGUGCCCCCGAUCAGCAAGUGGAGACUGGGAAAUCCCCCUCUUUAUCUGGAGCCUCUGCCCAACAGAGGAUUGAGCAUCA
B5: chr15:73714018:73714119:+|3pUTR|ENSG00000103855|msi1|total|mutant (ssRNA)
RNA: GGGAGUUCUACAGUCCGACGAUCCCCACCCAUAAUUCUUACCCAGAGCAUGGGGUUGGGGCGGAAACCUGGAGAGAGGGACACCGCCCCUCGCCACGGCCCGAGAAUCUGGUGGUGUCCAAAAUGUCUGUCCAGGUGUGGGCACAACAGAGGAUUGAGCAUCA
B6: chr12:285015:285116:-|3pUTR|ENSG00000073614|msi1|total|mutant (ssRNA)
RNA: GGGAGUUCUACAGUCCGACGAUCUAACAGGGCAUACCGGAUGUGGCUUUUGUCCAGCUGACCGCCGUCCGAGGCUUACAACUCCGGAGCAGCACCAACUGAAGGUGCUAAUUGCUUGGAUCUCCUUCAUUGGGACCGUUGGAGCAACAGAGGAUUGAGCAUCA
B7: chr8:96333981:96334082:+|3pUTR|ENSG00000156471|msi1|FALSE|bound_elsewhere (ssRNA)
RNA: GGGAGUUCUACAGUCCGACGAUCUUAAGUUCAGGCCACUUUUCUGUCUUUUAUUUGGUUACUGUUGUUAUUUGUUUUUAAGUUAGGAUGCUUUUUAACAGCCUUUAGAAGCCGCUGCUGAAAUUGAUACUGGGGGAAGGGUUCCAACAGAGGAUUGAGCAUCA
B8: chr5:136988535:136988636:-|CDS|ENSG00000152377|msi1|FALSE|unique (ssRNA)
RNA: GGGAGUUCUACAGUCCGACGAUCGGAAAGCAUCAGGCUUGGUGGCAGCUGAGAUAUGCCUUUUGUUUGGCAGGGUUUGACACUAGCAUCCUGCCCAUCUGCAAGGACUCCCUGGGCUGGAUGUUCAACAAGUUGGACAUGAACCAACAGAGGAUUGAGCAUCA
B9: chr1:20652278:20652361:-|3pUTR|ENSG00000244038|msi1_unk|total|mutant (ssRNA)
RNA: GGGAGUUCUACAGUCCGACGAUCGACUGAGGGGCCCGAGCCCUCUCCGCACAGCGUGGAGACGGGGCAAGGAGGGGGGUUAUCCGGAUUGGUGGUUUUGUUUUGCUUUGUUUAAAGCCGUGGGAAAAUGGCACAACUUUACCUCAACAGAGGAUUGAGCAUCA
B10: ENSG00000107863:be:win_1801|CDS|ENSG00000107863|bound_else_gene|NA|bound_elsewhere_windowed (ssRNA)
RNA: GGGAGUUCUACAGUCCGACGAUCACUACUUGUGGAAUGUCACUGCCUCGGGGUAUUUCACAAGACAGGUCACCUCUUGUGAAAGUCCGAAGUAAUUCUCUGAAAGCUCCUUCCACGCAUGUCACAAAACCAUCAUUUAGCCAGCAACAGAGGAUUGAGCAUCA
B11: chr3:130733575:130733676:-|CDS|ENSG00000196455|msi1|total|mutant (ssRNA)
RNA: GGGAGUUCUACAGUCCGACGAUCCGUCAAAGAGGUUCCUCGUAAUGAUAUCAAUAUUUAUCCGGAAUACAUUCUGCCAGGCACCGCCCACUCCGCCCAAGAUGAUGCUACUAUCGUCCGACCCGCCUAUGCUGGUAAGAGUUUCAACAGAGGAUUGAGCAUCA
B12: chr1:248623556:248626177:-|three_prime_utr|ENSG00000279301|control|control|control (ssRNA)
RNA: GGGAGUUCUACAGUCCGACGAUCUGCAGAGAUCUUUCAGUGAAGUAUCAAAAAUGGUUUAUUAUGAAGUUAAAUAAUUUAUCUAGUCUUUUUAUUUAGGGAAGAAAAACCCCAAAUAUUAGAGUUCACAGCAACCUUUCACUCCAACAGAGGAUUGAGCAUCA
B13: chr1:42926584:42926685:-|3pUTR|ENSG00000117394|msi1|total|mutant (ssRNA)
RNA: GGGAGUUCUACAGUCCGACGAUCGCCUGAGGGUGGAGACUAAGCCCUGUCGAGACACUUGCCUUCUUCACCCAGCUAAUCUGCCGGGCUGGACCUAUGUCCUAAGGACACACUAAUCGAACUAUGAACUACAAAGCUUCUAUCCAACAGAGGAUUGAGCAUCA
B14: chr8:73046310:73046411:+|3pUTR|ENSG00000147601|msi1|total|mutant (ssRNA)
RNA: GGGAGUUCUACAGUCCGACGAUCUUGUAUUCUUUAAGAACCUUAUUUUGAUAAAAUGUAAAUUUGUUGAACCCUGCCACAUUCCGUAUCCCCACCCCCAAAUCCUGUUCCAAUGAAAAAAUUAAAACCUGAUACGAAAAAAAACAACAGAGGAUUGAGCAUCA

This test deals with T1, UNK ZnF1-6 (called full-length). The experiment in a line: nsRBNS (natural sequence RNA bind-n-seq); RBNS binding buffer (assumed for nsRBNS): 25 mM Tris pH 7.5, 150 mM KCl, 3 mM MgCl2, 0.01% Triton X-100, 500 ug/ml BSA, 20 U/ml SUPERase-In, 4 C; UNK is unkempt and MSI1 is Musashi-1; names of the RNAs are library labels; protein concentration not given here; high values mean tight binding.
Take B1: the binding signal turned out to be 0.744 enrichment R.

B2: the binding signal came to 0.282 enrichment R. The figure for B3 is 0.515 enrichment R; for B4 it is 0.709 enrichment R. The figure for B5 is 0.496 enrichment R; for B6 it is 0.786 enrichment R. The figure for B7 is 1.21 enrichment R; for B8 it is 0.8 enrichment R; for B9 it is 0.793 enrichment R. Molecule B10 had a binding signal of 0.572 enrichment R.

On to B11, for which the binding signal was 0.841 enrichment R.

In turn, B12 gave a binding signal of 1.49 enrichment R. On to B13, for which the binding signal turned out to be 0.632 enrichment R. The figure for B14 is 1.37 enrichment R.

These data come from paper PMC12136788.
